Reference: publication PMC12040169 (PLOS Biology, 2025)
The other results are listed elsewhere or left out.

test system: T1, C. trachomatis L2/434/Bu expressing GFP (CTL2-GFP); parameters: species or system HeLa; C. trachomatis total inclusion area by high-content imaging, normalised to DMSO; settings: total inclusion area; 28.5 h, 10 µM; inhibitor
T1 construct: L2/434/Bu GFP intracellular growth in HeLa cells
Procedure, shortened: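 Bulk GFP and resorufin signals were read first. Wells were then fixed, stained with Hoechst and imaged to detect GFP inclusions and host nuclei. MICs followed the previously described calculation.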

SMILES | % of control remaining
Cc1nc2c(c(=O)[nH]1)CN(Cc1ccc(-c3ccccc3)cc1)CC2 [CBK283952] | 88.7856
COc1ccc(OCCN2CCC(C(=O)c3ccc(F)cc3)CC2)cc1 [CBK149136] | 65.6695
O=c1c2ccccc2nc(COc2ccccc2)n1O [CBK288482] | 42.8416
COc1ccc(-n2c(=O)[nH]cc(C(=O)Nc3cccc(Cl)c3C)c2=O)cc1 [CBK287549] | 99.1917
O=C(COc1ccc2ccccc2c1)N[C@@H](C(=O)O)c1ccc(O)cc1 [CBK286571] | 69.7473
CCCc1cnc(N2CCOCC2)nc1 [CBK028742] | 65.6528
Cc1cc(C)c2nonc2c1S(=O)(=O)NCCN1CCCCC1CO (stereo not shown) [CBK306966] | 94.7018
N=c1n(CCN2CCCCC2)c2ccccc2n1CC(O)c1cccs1 (stereo not shown) [CBK262908C] | 126.451
COc1cc(C=O)ccc1Oc1nnnn1-c1ccc(C(=O)O)cc1 [CBK267071] | 106.547
CCCC(=O)c1ccc(S(=O)(=O)N2CCCN(Cc3ccc(OC)c(F)c3)CC2)cc1 [CBK062926] | 90.7404
CCc1nc2ccc(C(=O)Nc3ccc(OC)c(OC)c3)cn2c1N(C)C(=O)Nc1ccccc1OC [CBK145875] | 86.0017
NC(=S)c1ccc2c(c1)OCO2 [CBK022803] | 75.5944
CCOC(=O)c1ccc(N2C(=O)CC(N3CCN(c4ccc(S(C)(=O)=O)cc4)CC3)C2=O)cc1 (stereo not shown) [CBK268721] | 89.0034
CCC1(C)CCCN(Cc2nnnn2-c2ccc(S(C)(=O)=O)cc2)C1 (stereo not shown) [CBK306180] | 74.7605
O=C(O)C12CC3CC(C(=O)O)(C1)CC(C(=O)O)(C3)C2 [CBK263442] | 105.164
O=C(Nc1nc2nccc(-c3ccccc3)n2n1)c1cccc([N+](=O)[O-])c1 [CBK265414] | 108.242
NCC1CCCN1C(=O)c1ccc(Oc2cccc(Br)c2)nc1 (stereo not shown) [CBK304200] | 25.5988
Cc1nc(COc2ccccc2)sc1C(=O)N1CCC(C(N)=O)CC1 [CBK202603] | 80.3977
c1csc(-c2nnc(C3CCN(Cc4ccsc4)CC3)o2)c1 [CBK285309] | 81.0442
COc1ccc2c(c1)C1(CC(=O)N(CCC3CCCCC3)C1=O)C(=O)N2C (stereo not shown) [CBK075147] | 78.4911
CC(O)c1ccc(-c2ccc(CNCCCN3CCOCC3)o2)cc1 (stereo not shown) [CBK278178C] | 105.475
CCC(=O)Nc1nc2ccccc2n1CCCN(C)C [CBK263492] | 94.974
COc1ccc([C@@]23CC[C@@H](NC(=O)Nc4ccon4)C[C@@H]2N(C)CC3)cc1OC [CBK051069T] | 62.3812
C[C@@H]1CN(c2ccc(C(F)(F)F)c(OCc3ccccc3)n2)CCN1 [CBK003987A] | 26.4719
Cc1n[nH]c(C)c1CNC(=O)C1CCN(Cc2ccc(F)cc2)CC1 [CBK282502] | 119.612
COCCN(Cc1cc2ccc(C)cc2nc1O)S(=O)(=O)c1ccccc1 [CBK269216] | 117.975
Oc1ccccc1/C=N/c1ccc(Cc2ccc(/N=C/c3ccccc3O)c(O)c2)cc1O [CBK261156] | 84.5136

SMILES | % of control remaining
CC(NS(=O)(=O)c1ccccc1Cl)C(=O)N1CCCC1 (stereo not shown) [CBK305994] | 46.2477
COc1cc(CN2CCN(C/C=C/c3ccccc3)CC2)cc(Br)c1O [CBK261582] | 99.1535
O=C(NC(Cc1ccccc1)C(=O)O)c1ccc(C#CC2(O)CCCCC2)cc1 (stereo not shown) [CBK267702] | 100.681
OC(CNCCNc1nccc(C(F)(F)F)n1)Cn1ccc2ccccc21 (stereo not shown) [CBK074642] | 90.4833
CCCCSc1nc(N)cc(N2CCC(N3CCOC3=O)CC2)n1 [CBK306974] | 94.7658
CC(=O)Nc1cccc(C(=O)N2CCN(Cc3ccc4c(c3)OCO4)CC2)c1 [CBK270031] | 80.322
O=C(CCn1c(C(F)F)cc2cccnc21)N1CCOCC1 [CBK284956] | 110.64
O=C(CCn1c(C(F)F)cc2cccnc21)NCc1cccnc1 [CBK285066] | 87.1425
CN(C)C(=O)c1ccc(-c2ccc3c(c2)COC(C2CCN(C(=O)CC4CCCCC4)CC2)O3)cc1 (stereo not shown) [CBK149763] | 88.9356
N#CC1=C(N)Oc2cc(N)ccc2C1c1ccc(-c2ccccc2)cc1 (stereo not shown) [CBK261605] | 91.8479
Cc1cc(NC(=O)CCCN2C(=O)c3cccc4cccc(c34)C2=O)n(-c2ccccc2)n1 [CBK265874] | 81.8783
CS(=O)(=O)Nc1nnc(SCC(=O)Nc2cccc([N+](=O)[O-])c2)s1 [CBK045536] | 95.4981
CN1CCN(c2ccc([N+](=O)[O-])c(NCc3ccccc3)c2)CC1 [CBK042199] | 78.6749
COc1ccc(Br)cc1C(=O)Nc1cc(-c2nc3ccccc3[nH]2)ccc1Cl [CBK264112] | 110.834
CN(CCO)c1ccc(C(=O)N2CCC(N3CCOCC3)CC2)cn1 [CBK306899] | 88.7529
O=C(CC1=C(O)C(=O)c2ccccc2C1=O)c1ccccc1 [CBK262002] | 94.1886
Cc1ccc(Nc2nc(N/N=C/c3ccccc3)nc(N3CCC(Cc4ccccc4)CC3)n2)cc1 [CBK262296] | 83.9635
Cc1nn(-c2ccccc2)c(C)c1C1CC(=O)Nc2c1cnn2C(C)C (stereo not shown) [CBK287925] | 110.472
COc1cc(NC(=O)c2ccc3c(c2)C(=O)N(c2c(C)cc(C)cc2C)C3=O)c(C(=O)O)cc1OC [CBK264074] | 107.123
O=C(O)CC1Sc2ccccc2NC1=O (stereo not shown) [CBK261308] | 101.006
Cc1nn(CC(=O)N2CCN(C)CC2)c(=O)c2ccccc12 [CBK304221] | 34.8357
CCCn1ncc(CN2CCC(c3cc4cccnc4[nH]3)CC2)c1C [CBK284949] | 73.2272
CC(C)(C)OC(=O)COc1cc2oc(=O)cc(-c3ccccc3)c2cc1Cl [CBK263729] | 107.77
COC(=O)c1nn(C(=O)N(C)C)c(C)c1Br [CBK005077] | 62.9265
Cn1c(=O)c(C(=O)Nc2ccc(Cl)cc2)cc2cccnc21 [CBK287741] | 102.815
O=C(Nc1nnc(-c2ccncc2)o1)c1ccc(Cl)cc1Cl [CBK287433] | 108.302
COC(Cc1nc2ccccc2s1)C(=O)O (stereo not shown) [CBK265806] | 132.807

SMILES | % of control remaining
COC(=O)c1ccc(/C=C/C2=CCN(C)CC2)cc1 [CBK283744] | 97.0554
Cc1ccc(S(=O)(=O)N2CCN(c3nc(NC(C)c4ccccc4)c4ccccc4n3)CC2)cc1 (stereo not shown) [CBK266448] | 92.3781
CNC(=O)c1cc2ncc(C(F)(F)F)cc2s1 [CBK089882] | 116.173
Cc1ccc(/N=N/N(CC(O)C(O)C(O)CO)c2ccc(C)c(C)c2)cc1C (stereo not shown) [CBK262705] | 95.406
c1c2c(cc3sc(N4CCCC4)nc13)OCCO2 [CBK287496] | 121.717
CC(=O)Nc1ccc(S(=O)(=O)N2CCN(c3cc4[nH]c(=O)[nH]c4cc3[N+](=O)[O-])CC2)cc1 [CBK267013] | 105.594
O=C(O)C1CC(=O)N(CCc2ccccc2)/C(=N/CCc2ccccc2)S1 (stereo not shown) [CBK265558] | 90.7311
O=C(c1ccccc1)N1C[C@@H]2CCCCN(CC3CC3)[C@@H]2C1 [CBK285498] | 84.6601
CC1CCc2nc(NC(=O)Cn3cccc(C(=O)NC4CCCCC4)c3=O)sc2C1 (stereo not shown) [CBK286064] | 92.2865
Cc1nnc2c(N3CCN(CCO)CC3)nc3ccccc3n12 [CBK270146] | 111.936
O=C(C1CCCCC1)N1CCC(n2c(=O)[nH]c3ccccc32)CC1 [CBK149703] | 86.9431
COc1ccc(-c2ccccc2NC(=O)c2cccc(CN3CCCC3=O)c2)cc1 [CBK285865] | 90.1737
O=C(O)c1cccc(-c2cccc(N3CCN(c4ccccn4)CC3)n2)c1 [CBK036888] | 48.6746
O=C(Cc1c[nH]c2ccccc12)NC1CCCC1 [CBK200238] | 112.491
COC(=O)CCc1ccc(S(=O)(=O)N2CCN(Cc3ccc(O)c(F)c3)CC2)cc1 [CBK062813] | 101.624
Cc1cc(C)n(CC(C)NC(=O)c2cc(C(F)(F)F)nn2C)n1 (stereo not shown) [CBK281671] | 94.4063
CS(=O)(=O)N1CCc2cc(-c3csc(N)n3)ccc21 [CBK304596] | 114.398
CSc1nnc(-c2sccc2OCc2ccc(Cl)cc2Cl)n1C [CBK067693] | 78.6701
Cc1c(CN2CCCC(c3cc4cccnc4[nH]3)C2)cnn1C (stereo not shown) [CBK284683] | 51.6522
COC(=O)c1ccc(-c2ccc(OC)c(OC)c2)nc1 [CBK160175T] | 112.779
COc1ccc2c(c1)C1(CC(=O)N(C)C1=O)C(=O)N2CC(=O)O (stereo not shown) [CBK076118] | 97.0786
O=C(CNC(=O)c1ccc(OC(F)F)cc1)NCCCn1cccn1 [CBK297789] | 87.7352
CN(C)c1ccc(-c2nccnc2NS(=O)(=O)Cc2cccc(Cl)c2)cc1 [CBK050787] | 104.112
CCN(CC)C(=O)CN1C2CCC1CC(O)(c1ccco1)C2 (stereo not shown) [CBK284094] | 76.0223
CC(Oc1ccccc1)c1nnc(SCC(=O)Nc2cc(Cl)c(Cl)cc2Cl)n1C (stereo not shown) [CBK266262] | 141.521
